# The supplement of paper PMC8728848
# Some of the results follow.
# B1: LCA (Lens culinaris), P02870 (protein)
# chain: MASLQTQMISFYLIFLSILLTTIFFFKVNSTETTSFSITKFSPDQKNLIFQGDGYTTKGKLTLTKAVKSTVGRALYSTPIHIWDRDTGNVANFVTSFTFVIDAPSSYNVADEFTFFIAPVDTKPQTGGGYLGVFNSKEYDKTSQTVAVEFDTFYNAAWDPSNKERHIGIDVNSIKSVNTKSWNLQNGERANVVIAFNAATNVLTVTLTYPNSLEEENVTSYTLNEVVPLKDVVPEWVRIGFSATTGAEFAAHEVHSWSFHSELGGTSSSKQAADA
# How the values were obtained:
# Experiment in all cases: glycan array binding signal (z-score within array); higher = stronger binding
# Settings in all cases: glycan notation: IUPAC condensed, linker removed
# [1] = target: Gal(b1-4)GlcNAc(b1-2)[Gal(b1-4)GlcNAc(b1-6)]Man(a1-6)[Gal(b1-4)GlcNAc(b1-2)Man(a1-3)]Man(b1-4)GlcNAc(b1-4)GlcNAc
# Procedure, shortened: (§1)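 Glycan array data were curated from 3228 arrays in the Consortium for Functional Glycomics database and kept only where the protein sequence was available. Glycan names were converted to IUPAC-condensed notation, and columns mapping to the same glycan were averaged. The binding signal is a within-array Z-score, averaged across arrays of the same protein sequence at different concentrations or buffers and across linkers. Negative Z-scores can be read as non-binding.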
# [2] = target: Gal(b1-4)GlcNAc(b1-2)[Gal(b1-4)GlcNAc(b1-6)]Man(a1-6)[Gal(b1-4)GlcNAc(b1-2)Man(a1-3)]Man(b1-4)GlcNAc(b1-4)[Fuc(a1-6)]GlcNAc
# Procedure, shortened: as §1
# [3] = target: Gal(b1-4)GlcNAc(b1-2)[Gal(b1-4)GlcNAc(b1-6)]Man(a1-6)[GlcNAc(b1-4)][Gal(b1-4)GlcNAc(b1-2)Man(a1-3)]Man(b1-4)GlcNAc(b1-4)GlcNAc
# Procedure, shortened: as §1
# [4] = target: Gal(b1-4)GlcNAc(b1-2)[Gal(b1-4)GlcNAc(b1-6)]Man(a1-6)[GlcNAc(b1-4)][Gal(b1-4)GlcNAc(b1-2)[Gal(b1-4)GlcNAc(b1-4)]Man(a1-3)]Man(b1-4)GlcNAc(b1-4)[Fuc(a1-6)]GlcNAc
# Procedure, shortened: as §1
# [5] = target: Gal(b1-4)GlcNAc(b1-3)Gal(b1-3)GalNAc
# Procedure, shortened: as §1
# [6] = target: Gal(b1-4)GlcNAc(b1-3)Gal(b1-3)GlcNAc
# Procedure, shortened: as §1
# [7] = target: Gal(b1-4)GlcNAc(b1-3)Gal(b1-4)Glc
# Procedure, shortened: as §1
# [8] = target: Gal(b1-4)GlcNAc(b1-3)Gal(b1-4)GlcNAc
# Procedure, shortened: as §1
# [9] = target: Gal(b1-4)GlcNAc(b1-3)Gal(b1-4)GlcNAc(b1-2)Man(a1-3)[Gal(b1-4)GlcNAc(b1-3)Gal(b1-4)GlcNAc(b1-2)Man(a1-6)]Man(b1-4)GlcNAc(b1-4)GlcNAc
# Procedure, shortened: as §1
# [10] = target: Gal(b1-4)GlcNAc(b1-3)Gal(b1-4)GlcNAc(b1-2)Man(a1-3)[Gal(b1-4)GlcNAc(b1-3)Gal(b1-4)GlcNAc(b1-2)Man(a1-6)]Man(b1-4)GlcNAc(b1-4)[Fuc(a1-6)]GlcNAc
# Procedure, shortened: as §1
# [11] = target: Gal(b1-4)GlcNAc(b1-3)Gal(b1-4)GlcNAc(b1-2)[Gal(b1-4)GlcNAc(b1-3)Gal(b1-4)GlcNAc(b1-6)]Man(a1-6)[Gal(b1-4)GlcNAc(b1-3)Gal(b1-4)GlcNAc(b1-2)Man(a1-3)]Man(b1-4)GlcNAc(b1-4)GlcNAc
# Procedure, shortened: as §1
# [12] = target: Gal(b1-4)GlcNAc(b1-3)Gal(b1-4)GlcNAc(b1-2)[Gal(b1-4)GlcNAc(b1-3)Gal(b1-4)GlcNAc(b1-6)]Man(a1-6)[Gal(b1-4)GlcNAc(b1-3)Gal(b1-4)GlcNAc(b1-2)Man(a1-3)]Man(b1-4)GlcNAc(b1-4)[Fuc(a1-6)]GlcNAc
# Procedure, shortened: as §1
# [13] = target: Gal(b1-4)GlcNAc(b1-3)Gal(b1-4)GlcNAc(b1-3)Gal(b1-4)GlcNAc
# Procedure, shortened: as §1
# [14] = target: Gal(b1-4)GlcNAc(b1-3)Gal(b1-4)GlcNAc(b1-3)Gal(b1-4)GlcNAc(b1-2)Man(a1-3)[Gal(b1-4)GlcNAc(b1-3)Gal(b1-4)GlcNAc(b1-3)Gal(b1-4)GlcNAc(b1-2)Man(a1-6)]Man(b1-4)GlcNAc(b1-4)GlcNAc
# Procedure, shortened: as §1
# [15] = target: Gal(b1-4)GlcNAc(b1-3)Gal(b1-4)GlcNAc(b1-3)Gal(b1-4)GlcNAc(b1-2)Man(a1-3)[Gal(b1-4)GlcNAc(b1-3)Gal(b1-4)GlcNAc(b1-3)Gal(b1-4)GlcNAc(b1-2)Man(a1-6)]Man(b1-4)GlcNAc(b1-4)[Fuc(a1-6)]GlcNAc
# Procedure, shortened: as §1
# [16] = target: Gal(b1-4)GlcNAc(b1-3)Gal(b1-4)GlcNAc(b1-3)Gal(b1-4)GlcNAc(b1-2)[Gal(b1-4)GlcNAc(b1-3)Gal(b1-4)GlcNAc(b1-3)Gal(b1-4)GlcNAc(b1-6)]Man(a1-6)[Gal(b1-4)GlcNAc(b1-3)Gal(b1-4)GlcNAc(b1-3)Gal(b1-4)GlcNAc(b1-2)Man(a1-3)]Man(b1-4)GlcNAc(b1-4)[Fuc(a1-6)]GlcNAc
# Procedure, shortened: as §1
# [17] = target: Gal(b1-4)GlcNAc(b1-3)Gal(b1-4)GlcNAc(b1-3)Gal(b1-4)GlcNAc(b1-3)Gal(b1-4)GlcNAc(b1-2)Man(a1-3)[Gal(b1-4)GlcNAc(b1-3)Gal(b1-4)GlcNAc(b1-3)Gal(b1-4)GlcNAc(b1-3)Gal(b1-4)GlcNAc(b1-2)Man(a1-6)]Man(b1-4)GlcNAc(b1-4)GlcNAc
# Procedure, shortened: as §1
# [18] = target: Gal(b1-4)GlcNAc(b1-3)Gal(b1-4)GlcNAc(b1-3)Gal(b1-4)GlcNAc(b1-3)Gal(b1-4)GlcNAc(b1-2)Man(a1-3)[Gal(b1-4)GlcNAc(b1-3)Gal(b1-4)GlcNAc(b1-3)Gal(b1-4)GlcNAc(b1-3)Gal(b1-4)GlcNAc(b1-2)Man(a1-6)]Man(b1-4)GlcNAc(b1-4)[Fuc(a1-6)]GlcNAc
# Procedure, shortened: as §1
# [19] = target: Gal(b1-4)GlcNAc(b1-3)Gal(b1-4)GlcNAc(b1-3)Gal(b1-4)GlcNAc(b1-3)Gal(b1-4)GlcNAc(b1-2)[Gal(b1-4)GlcNAc(b1-3)Gal(b1-4)GlcNAc(b1-3)Gal(b1-4)GlcNAc(b1-3)Gal(b1-4)GlcNAc(b1-6)]Man(a1-6)[Gal(b1-4)GlcNAc(b1-3)Gal(b1-4)GlcNAc(b1-3)Gal(b1-4)GlcNAc(b1-3)Gal(b1-4)GlcNAc(b1-2)Man(a1-3)]Man(b1-4)GlcNAc(b1-4)[Fuc(a1-6)]GlcNAc
# Procedure, shortened: as §1
binder,measurement,setting,value
B1,glycan array binding signal (z-score),[1],-0.294
same,glycan array binding signal (z-score),[2],4.72
same,glycan array binding signal (z-score),[3],-0.234
same,glycan array binding signal (z-score),[4],-0.263
same,glycan array binding signal (z-score),[5],-0.245
same,glycan array binding signal (z-score),[6],-0.225
same,glycan array binding signal (z-score),[7],-0.205
same,glycan array binding signal (z-score),[8],-0.212
same,glycan array binding signal (z-score),[9],0.183
same,glycan array binding signal (z-score),[10],4.42
same,glycan array binding signal (z-score),[11],-0.22
same,glycan array binding signal (z-score),[12],3.71
same,glycan array binding signal (z-score),[13],-0.22
same,glycan array binding signal (z-score),[14],0.215
same,glycan array binding signal (z-score),[15],4.2
same,glycan array binding signal (z-score),[16],3.1
same,glycan array binding signal (z-score),[17],-0.206
same,glycan array binding signal (z-score),[18],3.87
same,glycan array binding signal (z-score),[19],2.63
